In PubChem BioAssay AID1347071 (National Center for Advancing Translational Sciences (NCATS), 2019):
About 260 (0.063%) of roughly 410,000 compounds were called active. This list was built around the results that the source calls inconclusive (neither active nor inactive); the mix of calls is not that of the screen. Calls come from the whole dose curve; as a rule, active = well fitted activation curve with a large enough effect; inconclusive = small, poorly fitted or top-dose-only effect; inactive = no such curve, though single readings can be large or run the other way. No potency is given beside an inconclusive call; the fits are too rough.

Assay: qHTS for compounds that reverse cellular toxicity of Amyloid beta (A-beta) peptide in yeast: Primary Screen; note: nearly all actives have a fitted effect of over 55% in size
Conditions: yeast expressing A-beta42, growth rescue, OD600, 48 h; growth rescue: at 46.1 µM (top of the series), 0% DMSO, 100% iron-clioquinol control
How it was run: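 Growth rescue measured by 600 nm absorbance after 48 h yeast culture at 30 C with compound. Values normalized between DMSO and an equimolar ferric chloride plus clioquinol control.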
Potency is the fitted concentration of half-maximal effect; tags give direction and shape of the fitted curve.

**Q.** For CCCCOc1ccc(C(=O)N(Cc2ccc(C(C)C)cc2)C2CCS(=O)(=O)C2)cc1 (centres undefined), which Potency is on record?
**A.** Its Potency is inconclusive [activator, single point].

**Q.** Which Potency does the source give for CCCCc1n[nH]c(=S)n1Cc1ccc(Cl)cc1 here?
**A.** Its Potency is inconclusive [activator, single point].

**Q.** With O=C(CN(Cc1cccs1)C(=O)CSc1nnc(COc2ccccc2)o1)NC1CCCC1 as the molecule, how does the Potency read?
**A.** The Potency was inconclusive [activator, full curve].

**Q.** Which “growth rescue” value does the source give for CCCCN1CCc2nc(N3CCN(c4ncccn4)CC3)ncc2C1 here?
**A.** Its value is inactive: -3.99%.

**Q.** Which Potency does the source give for O=S1(=O)N[C@@H](Cc2ccccc2)COc2cccc(N3CCSCC3)c21 here?
**A.** The Potency was inconclusive [activator, single point].

**Q.** Which Potency does the source give for COc1cccc(CNC(=O)COC(=O)c2ccc(C(=O)c3ccccc3)cc2)c1 here?
**A.** The Potency was inconclusive [activator, single point].

**Q.** Which Potency does the source give for CC12CCC(=O)N1C(C(=O)Nc1cc(C(F)(F)F)ccc1N1CCCCC1)CS2 (centres undefined) here?
**A.** Its Potency is inconclusive [activator, single point].

**Q.** For Cn1c(=O)c2c(nc(CN3CCOCC3)n2CCc2ccccc2)n(C)c1=O, which Potency is on record?
**A.** The Potency was inconclusive [activator, full curve, poor fit].

**Q.** Which Potency does the source give for Cc1ccccc1OCCn1c(=S)[nH]c2ccccc21 here?
**A.** The Potency was inconclusive [activator, full curve].

**Q.** For CNC(=S)N1N=C(c2ccc(C)cc2)CC1c1ccc(N(C)C)cc1 (centres undefined), which Potency is on record?
**A.** Its Potency is inconclusive [activator, single point].

**Q.** For CC(/C=N/NC(=O)c1ccccn1)=C\c1ccco1, which “growth rescue” value is on record?
**A.** Its value is inactive: -12%.

**Q.** With COCCNc1nc(=S)[nH]c2cc(OC)c(OC)cc12 as the molecule, how does the “growth rescue” value read?
**A.** Its value is inactive: -3.68%.

**Q.** With Cn1cc(CN2CCN(c3ncccn3)CC2)c(-c2cccc(Cl)c2)n1 as the molecule, how does the “growth rescue” value read?
**A.** The value was inactive: 5.57%.

**Q.** For Cc1[nH]nc(Nc2ccc(C(C)C)cc2)c1[N+](=O)[O-], which “growth rescue” value is on record?
**A.** Its value is inactive: 1.67%.

**Q.** Which Potency does the source give for CS(=O)(=O)c1cccc(C(=O)Nc2ccccc2Cc2ccccc2)c1 here?
**A.** The Potency was inconclusive [activator, single point].

**Q.** With Fc1cccc(NC(=S)NC2CCCCCCC2)c1 as the molecule, how does the Potency read?
**A.** Its Potency is inconclusive [activator, partial curve, poor fit].

**Q.** For CC(C)n1c(=S)[nH]c2scc(-c3cccs3)c2c1=O, which Potency is on record?
**A.** Its Potency is inconclusive [activator, partial curve, poor fit].

**Q.** With Cc1cc(C)c(NC(=O)C2C3/C=C\CCCCC32)c(C)c1 (centres undefined) as the molecule, how does the Potency read?
**A.** Its Potency is inconclusive [activator, full curve].

**Q.** For CCCCc1ccccc1NC(=S)NC1CCCC1, which Potency is on record?
**A.** Its Potency is active: 7.08 µM.

**Q.** Which “growth rescue” value does the source give for CC1CN(S(=O)(=O)c2cccc(-c3cn4ccccc4n3)c2)CC(C)O1 (centres undefined) here?
**A.** The value was inactive: -10.7%.

**Q.** With O=C(CSC1=NNC(c2ccccn2)S1)Nc1ccccc1 (centres undefined) as the molecule, how does the Potency read?
**A.** Its Potency is inconclusive [activator, single point].

**Q.** For COc1ccc(CCNC(=S)Nc2ccc(C)cc2C)cc1, which Potency is on record?
**A.** The Potency was inconclusive [activator, partial curve, poor fit].

**Q.** With COc1ccc(NC(=S)N2CCN(c3ccccc3)CC2)c(OC)c1 as the molecule, how does the Potency read?
**A.** Its Potency is inconclusive [activator, partial curve, poor fit].

**Q.** Which Potency does the source give for O=C(Nc1ncc(Cc2cc(Cl)ccc2Cl)s1)c1ccc([N+](=O)[O-])cc1 here?
**A.** The Potency was inconclusive [activator, partial curve, poor fit].

**Q.** For CCOc1ccc(NC(=S)N2c3ccccc3CC2C)cc1 (centres undefined), which Potency is on record?
**A.** Its Potency is inconclusive [activator, single point].

**Q.** For CCOc1ccccc1CN1CCN(Cc2c[nH]c3ccccc23)CC1CCO (centres undefined), which Potency is on record?
**A.** The Potency was inconclusive [activator, single point].

**Q.** Which Potency does the source give for COC(=O)c1[nH]c2c(c1C)C(=O)CC(c1ccc(C)cc1)C2 (centres undefined) here?
**A.** The Potency was inconclusive [activator, single point].

**Q.** With CCC(=O)NC(c1cc(Cl)c2cccnc2c1O)C1CC1 (centres undefined) as the molecule, how does the Potency read?
**A.** Its Potency is inconclusive [activator, single point].

**Q.** With Oc1ccc(CN2CCCc3ccccc32)c2cccnc12 as the molecule, how does the Potency read?
**A.** The Potency was inconclusive [activator, single point].

**Q.** Which “growth rescue” value does the source give for COc1ccc(-c2nc(SCC(=O)Nc3ccc4c(c3)OCO4)c(-c3ccc(OC)cc3)[nH]2)cc1 here?
**A.** Its value is inactive: -1.05%.

**Q.** Which Potency does the source give for CCOC(=O)[C@H]1[C@H]2COc3ccc(Cl)cc3[C@@H]2N2C(=O)c3cc(Cl)ccc3NC(=O)[C@@]12C here?
**A.** Its Potency is active: 3.55 µM.

**Q.** With C/C(=C\c1ccco1)C1C(C#N)=C(N)Oc2n[nH]c(-c3ccccc3)c21 (centres undefined) as the molecule, how does the Potency read?
**A.** The Potency was inconclusive [activator, partial curve, poor fit].

**Q.** For Cc1cccc(C)c1-n1nnnc1C1(C)CCC(=O)N1C1CC1 (centres undefined), which “growth rescue” value is on record?
**A.** The value was inactive: -5.76%.

**Q.** Which Potency does the source give for O=C(c1cc(-c2ccccc2)n[nH]1)N1CCc2c([nH]c3ccccc23)C1c1ccccn1 (centres undefined) here?
**A.** The Potency was inconclusive [activator, single point].

**Q.** Which Potency does the source give for COc1cc(/C=C2/C(=O)ON=C2C)cc(Cl)c1O here?
**A.** The Potency was inconclusive [activator, partial curve, poor fit].

**Q.** With S=C1SC2(CCCCCC2)NC2=C1CCCCC2 as the molecule, how does the Potency read?
**A.** The Potency was inconclusive [activator, single point].

**Q.** With COCCCn1c(=S)[nH]c2ncccc2c1=O as the molecule, how does the “growth rescue” value read?
**A.** Its value is inactive: 8.57%.

**Q.** For S=C(NCCc1ccc(Cl)cc1)NC1CCCCC1, which Potency is on record?
**A.** The Potency was inconclusive [activator, full curve, poor fit].

**Q.** For COc1ccccc1N1CCN(C(c2ccc(N(C)C)cc2)c2nnnn2CCc2ccccc2)CC1 (centres undefined), which Potency is on record?
**A.** Its Potency is inconclusive [activator, single point].

**Q.** For Cc1ccnc(N2C3CCC2CC(O)(c2ccccc2)C3)n1 (centres undefined), which Potency is on record?
**A.** Its Potency is inconclusive [activator, single point].

**Q.** Which Potency does the source give for CSCC[C@H](NC(=O)C1CCN(S(=O)(=O)c2ccc(C)cc2)CC1)C(=O)NC1CCS(=O)(=O)C1 (some centres undefined) here?
**A.** The Potency was inconclusive [activator, partial curve, poor fit].

**Q.** Which Potency does the source give for CC(=O)NC(=S)Nc1cc(C(F)(F)F)ccc1N1CCOCC1 here?
**A.** Its Potency is inconclusive [activator, partial curve, poor fit].

**Q.** With C[C@@H]1CN([C@H](C)CO)C(=O)c2c(c3ccccc3n2C)-c2ccccc2CO[C@H]1CN(C)Cc1ccc(-c2ccccc2)cc1 as the molecule, how does the “growth rescue” value read?
**A.** The value was inactive: -17.1%.

**Q.** For COc1cnc(-c2ccccn2)nc1Oc1ccc(C(C)(C)C)cc1, which Potency is on record?
**A.** The Potency was inconclusive [activator, full curve, poor fit].

**Q.** With CCCCC(=O)Nc1ccc(C(=O)c2ccccc2)cc1 as the molecule, how does the Potency read?
**A.** Its Potency is inconclusive [activator, partial curve, poor fit].

**Q.** With COc1c(C)cccc1C(=O)NC(=S)Nc1ccccc1N1CCCC1 as the molecule, how does the Potency read?
**A.** The Potency was inconclusive [activator, single point].

**Q.** For S=C(NCCCN1CCOCC1)N1CCOCC1, which Potency is on record?
**A.** The Potency was inconclusive [activator, single point].

**Q.** With O=c1c2[nH]c3ccccc3c2ncn1Cc1ccccn1 as the molecule, how does the “growth rescue” value read?
**A.** Its value is inactive: -2.08%.

**Q.** For Cc1cc(NC(=O)C(C)C)cc(-c2nc3ncccc3o2)c1O, which “growth rescue” value is on record?
**A.** The value was inactive: -11.1%.

**Q.** For CCC(NC(=O)Nc1cc(C)on1)(C(F)(F)F)C(F)(F)F, which Potency is on record?
**A.** Its Potency is inconclusive [activator, single point].

**Q.** For Cc1ccc(NC(=O)Cc2nnc(SCC(=O)Nc3nncs3)n2C)c(C)c1, which “growth rescue” value is on record?
**A.** The value was inactive: 10%.

**Q.** For O=C(Cc1cccs1)N1CCN(S(=O)(=O)c2ccc(Cl)c(C(F)(F)F)c2)CC1, which Potency is on record?
**A.** Its Potency is inconclusive [activator, single point].

**Q.** For CC12CCCCN1CCCc1c2[nH]c2ccccc12 (centres undefined), which growth rescue is on record?
**A.** The growth rescue was inconclusive: 35.4% [activator].

**Q.** With O=C(NCc1cccc(Cl)c1)c1cnccn1 as the molecule, how does the “growth rescue” value read?
**A.** Its value is inactive: 1.5%.

**Q.** With COc1ccc(OC)c(NC(=O)c2ccc(OC3CSC3)cc2)c1 as the molecule, how does the Potency read?
**A.** The Potency was inconclusive [activator, partial curve, poor fit].

**Q.** Which Potency does the source give for CCC(NC(=S)NCc1ccc(F)cc1)c1ccccc1 (centres undefined) here?
**A.** The Potency was active: 11.2 µM.

**Q.** For S=C(NCc1ccccc1)C(=S)NCc1ccccc1, which Potency is on record?
**A.** The Potency was active: 8.91 µM.

**Q.** For CC1=CC(C)(C)NC(=S)N1c1cccc(Cl)c1, which Potency is on record?
**A.** Its Potency is inconclusive [activator, partial curve, poor fit].

**Q.** Which Potency does the source give for Cn1c(-c2ccccc2)c(/C=N/NC(=O)c2ccc(O)cc2)c2ccccc21 here?
**A.** Its Potency is inconclusive [activator, single point].

**Q.** Which Potency does the source give for CCOc1ccc(CC(=O)NNC(=S)Nc2ccccc2)cc1Br here?
**A.** The Potency was inconclusive [activator, single point].

**Q.** With CC(=O)Nc1sc2c(c1C(c1ccc(Cl)cc1)N1CCOCC1)CCCC2 (centres undefined) as the molecule, how does the Potency read?
**A.** Its Potency is inconclusive [activator, partial curve, poor fit].

**Q.** With COc1ccc(C(=O)NNC(=S)NC(=O)C(C)(C)C)cc1 as the molecule, how does the Potency read?
**A.** The Potency was active: 5.62 µM.

**Q.** With COc1ccccc1C(=O)Nc1ccnn1C1CCN(CC2CC=CCC2)CC1 (centres undefined) as the molecule, how does the Potency read?
**A.** Its Potency is inconclusive [activator, single point].

**Q.** Which Potency does the source give for S=c1[nH]nc(C2CCCCC2)n1Cc1ccccc1 here?
**A.** Its Potency is inconclusive [activator, partial curve, poor fit].

**Q.** With COc1ccc(CNCc2cccc(OC)c2OC)cc1Br as the molecule, how does the “growth rescue” value read?
**A.** Its value is inactive: 1.68%.

**Q.** With Cc1cccc(Nc2c(O)nc[nH]c2=O)c1 as the molecule, how does the Potency read?
**A.** The Potency was inconclusive [activator, partial curve, poor fit].

**Q.** For Cc1c(Cl)cccc1NC(=S)NC(=O)c1cncc(Br)c1, which Potency is on record?
**A.** Its Potency is inconclusive [activator, full curve, poor fit].

**Q.** With COCCn1c(=S)[nH]c2cc(C(=O)N3CCCC(C)C3)ccc2c1=O (centres undefined) as the molecule, how does the Potency read?
**A.** Its Potency is inconclusive [activator, single point].

**Q.** For O=C1c2cnc3nc(SCc4ccccc4)nn3c2CC2c3ccccc3CCN12 (centres undefined), which Potency is on record?
**A.** The Potency was inconclusive [activator, partial curve, poor fit].
